# More than one record can exist for a structure, and the calls need not agree.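 The endpoint reported here, percent growth, reads 100 for growth as untreated, 0 for no net growth and -100 for all cells dead.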 The source holds more than one record for some entries. The other results are left out here. Rule for the calls: active = growth percent below 10; inactive = the rest. The source may hold further records. These are repeated runs of one drug, at the concentration stated with the values; one value stands for one run. Brackets with × give the number of equal values in this list.
# How the values were obtained:
# NCI-H522 lung = assay: NCI-60 one-dose screen, 48 h (100 = growth as untreated, 0 = no growth, -100 = all killed); conditions: 2.5 mM
# A549/ATCC NSCLC = assay: as above; conditions: 2.5 mM
smiles,measurement,setting,value
O=c1[nH]cc(F)c(=O)[nH]1,growth,NCI-H522 lung; runs of 1991,"active: -42, -40.6, -28.4, -46.5, -13.9, -16, -33.2, -57.5, 7.01, -20.1, -9.1, -35.4, -61.2, -36, 5.51, -3.49, -26.6, -63.5, -42.9%"
same,growth,NCI-H522 lung; runs of 1992,"active: -20, -23.9, 2.42, -34.9 (3×), -52.9, -22.3, 4, 4.52, 6.89, -22.8, -35.7, -47.5, -56.7, -58, 5.42, -11.9, -20.3, -37.1, -5.63, 6.46, -7.51, -32.2, -52, -45.5, -16.6, 5.64, -54.7 (3×), -36.7, -8.89, -61.3, -9.82, -17.4, -11, -32.8, -17.6, -6.73, -33.7, -45.8, -19.5, -54.6, -29.4, -58.9, -49.4, -38.7, -24.4, -29.8, -35.5, 9.34, -8.7, -16.7, -49.3, -44.5, -47 (2×), 5.01, -50.2, 4.81, -7.24, -19.7, 0.97, 7.86, -31.8, -43.2, -61, -32.7, -50.6, 5.84, -54.4, -18, -15.5, -21, -38, -40, -28.6, -6.33, -5.85, -11.3, -57.9, -3.18, -23.2, -51.6, -52.8, -55.1, -46.6, -34, 3.93, -9.81, -29.2, -13.6, -9.34, -39.2, -60.1, -29.1, -30.2, -25.1 (2×), -4.63, 6.32, -20.8, -51.4, 4.62, 5.15% and inactive: 14.9, 27.8, 37.6, 11.3, 11.9, 16, 12, 13.7, 21.8, 28.9, 14.1, 29%"
same,growth,NCI-H522 lung; runs of 1993,"active: -39.4, -11.7, 7.62, -40.2, -13.6, 8.28, -23.6, -21.5, 0.283, 4.65, -9.48, -15, -19.5, -33.9, -1.91, -48.7% and inactive: 21.7, 11.5, 67.7, 12.1, 18.6, 11.8 (2×), 18.3, 23.2, 26.5, 15.3, 10.2, 12.3, 23.9, 38.7, 18.1, 15.9, 36.3, 65.1, 13.5, 59.1, 21.3, 30, 35.7%"
same,growth,NCI-H522 lung; runs of 1994,"active: 0.762, -1.63, -41.8, -37.1, -35.6, -11.5, -43.8, 0, -13.6, -10.4, -51.3, -10.2, 0.411, -3.68, 1.35, 0.958% and inactive: 20, 17.5, 26.1, 29, 13.1 (2×), 24.9, 22.7, 25.6, 12.2, 46.3, 18.3, 53.3%"
same,growth,NCI-H522 lung; runs of 1995,"active: 7.29, -8.72, -36.2, -42.9, 4.24, -24.9, -19.2, -1.57, -1.6, -6.65, 6.51, 2.97, 6.44, -60.9, -35.1, -21.7, -4.27, -8.76, 0.121, 9.05, 0, -1.32, 1.09, -19.5, -2.56% and inactive: 16.9, 41.4, 10.1, 14.6, 11.7, 21.7, 22.3, 14.3 (2×), 12.5, 16.5, 33.5%"
same,growth,NCI-H522 lung; runs of 1996,"active: 4.54, -15, -39.9, 6.49, -38.2, -17.5, -18.2, 1.46, 0.101, -42.5, 7.85, -14.9, 5.92, 8.03, -20.6, -23.3, -16.3, -50.9, -2.9, -11.8, 5.36, -39.5, 6.65, -24.6, 7.69, -2.04, 8.25, 0.825, -3.28, 8.83, -16.7, 4.73% and inactive: 14.4, 37.9, 12.2, 17.4, 10.4, 15.7, 44.1, 16.9, 18.8, 15.6, 13.9, 40.9, 24.3, 14.7, 35.1, 45.4, 18.1, 46.1, 42.2%"
same,growth,NCI-H522 lung; runs of 1997,"active: 3.58, 9.75, -33.9, -10.7, -50.6, 2.42, -25.9, -1.47, 3, -22.7, -23.7, -15.1, -1.59, -32.6, -7.34, -9.23, -25.5 (2×), -20.1, 6.02, -20.6, -6.23, -27.8, -16.8, -15% and inactive: 26.8, 18.5, 37.2, 11.6, 19.5, 21.7, 32.6, 15.6, 35.1, 13.7%"
same,growth,NCI-H522 lung; runs of 1998,"active: 4.48, -6.39, -6.07, -1.6, 6.33, -22.3, 7.78, 4.09, -8.2, 8.8, -44.9, -10.3, -24.6, -7.91, -19, -38.4, 2.73, -41.6% and inactive: 13.4, 15.5, 19.5, 11.9, 25.6%"
same,growth,NCI-H522 lung; runs of 1999,"inactive: 33.2% and active: -38.6, -41.5, -28.2, -15.2, -5.5, -89.9, -79.1, -66.1, 2.38, -31.6, -68.7, -59.8, -59.6, -35.3%"
same,growth,NCI-H522 lung; runs of 2000,"active: -31.3%, 1.17%, -53.6% and inactive: 14.1%"
same,growth,A549/ATCC NSCLC; runs of 1991,"active: 3.74, -15.7, 7.08, 5.87, 3.84, -7.69, 6.5, -20.3, -24.3, -6.43, -18.6, 5.32, 7.71, -20.7, -13.1, 0.993, 9.52, -6.76, -27, -16.8%"
same,growth,A549/ATCC NSCLC; runs of 1992,"active: -4.7, -1.69, 5.04, 5.6, 3.51, 1.87, -34.4, -36.1, 5.11, -28.6, 7.56, -19.6, -21.2, 3.5, -31.7, -64.1, 9.3, 7.45, -37.3, 5.5, 0.128, 7.62, 5.1, -0.121, -1.08, 9.05, 0.381, 0.553, -55.2, -39.4, 4.43, 2.46, -54.7, -31.3, -12.3, 3.14, 8.97, -12.1, -40.6, -15.5, -9.63, 1.11, -3.34, -8.81, -4.17, 5.97, -38.1, -1.13, -35.4, 2.28, -21.6, 4.35, 6.98, 8.85, 4.57, -11.3, -0.193, 7.03, -42.7, 6.02, -38.7, -38.3, 1.45, -42.2, -35.2, -12, 3.69, 5.87, -1.72, -37.7, -42.8, -42.1, -9.38, -7.95, -13.4, 8.82, 2.2, 2.48, -13.5, 3.32, 3.81, -22, 4.38, -24.6, -13.7, 0.145, -41.5, 0.65, -43, 0, -27.3, 0.851% and inactive: 11.7, 22, 13.7 (2×), 30.1, 15, 45.9, 37.5, 25.4, 12.2, 16.2, 13.5, 12.1, 13.8, 10.3, 11.1 (2×), 10.9, 13, 15.2, 12.6, 13.4, 16.1, 16.7, 11.8, 15.3, 16.6, 101, 18.5%"
same,growth,A549/ATCC NSCLC; runs of 1993,"inactive: 12.4, 14.5, 16.2, 22.2, 20.7, 16.9 (2×), 10.1, 12.7, 11.3, 14.3, 11.1, 19.2, 16.1, 10, 13.9, 20, 16.5, 11.2, 12.9, 78.9, 10.6, 11.6, 10.8, 14.6% and active: -13.3, -10.1 (2×), -16.1, 0.625, -3, 4.56, 3.75, 5.28, 7.96, -14.4, 1.67, 4.24, 0.817, 8.72, 0.778, -29.4, 4.7, -3.42, 5.66, 6.84, -8.36%"
same,growth,A549/ATCC NSCLC; runs of 1994,"active: 3.09, 5.76, -0.767, -3.52, 4.25, -1.53, -18.8, 8.59, 2.71, -7.54, -2.54, 2.58, -1.61, 3.77, 9.18, 6.13, -28.2, 7.45, 9.63, -6.01, 8.26, -12.7, 9.98, 7.49, 8.62, -13.4, 7.26% and inactive: 14.4, 10.1, 12.8, 11.3, 12.1, 12.4, 14.7%"
same,growth,A549/ATCC NSCLC; runs of 1995,"inactive: 11.8, 13.8, 11.3, 26.5, 14, 24.3, 15.9, 19.4, 22.1, 48.2, 16% and active: -3.59, -13.1, -31.2, 6.07, -8.82, -4.11, 3.66, 3.05, -22.3, -7.47, 6.96, 9.41, 9.05, 1.69, 2.96, 4.4, -48.7, 5.97, 8.4, 3.29, 2.75, 7.05, -19.5, -35.5, -20.1, 4.92, 7.35%"

# Source: PubChem BioAssay (NCI)
